# Test results: PubChem BioAssay AID488969 (Vanderbilt High Throughput Screening Facility, 2010)
# Over roughly 110,000 compounds, “z-score” has its median near -0.1; the highest 2% begin near 2. Some of the results follow. The source made the active and inactive calls.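 Rule for the calls: active = z-score in the third read window above 3 or below -3; inactive = the rest.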
# Target: Metabotropic glutamate receptor 8 (Rattus norvegicus) (UniProt P70579)
# Test: mGluR8 Gi/Go-coupled signaling modulation – cell-based, rat, thallium flux, HTS, primary screen (AID 488969)
# Settings: HEK293 rat mGluR8, GIRK (G protein-gated inwardly rectifying potassium channel) thallium flux, FluoZin2; at 10 µM; stronger effect = higher value; submaximal glutamate (EC20) added with thallium
# Chain of UniProt P70579 (P70579 whole entry, looked up): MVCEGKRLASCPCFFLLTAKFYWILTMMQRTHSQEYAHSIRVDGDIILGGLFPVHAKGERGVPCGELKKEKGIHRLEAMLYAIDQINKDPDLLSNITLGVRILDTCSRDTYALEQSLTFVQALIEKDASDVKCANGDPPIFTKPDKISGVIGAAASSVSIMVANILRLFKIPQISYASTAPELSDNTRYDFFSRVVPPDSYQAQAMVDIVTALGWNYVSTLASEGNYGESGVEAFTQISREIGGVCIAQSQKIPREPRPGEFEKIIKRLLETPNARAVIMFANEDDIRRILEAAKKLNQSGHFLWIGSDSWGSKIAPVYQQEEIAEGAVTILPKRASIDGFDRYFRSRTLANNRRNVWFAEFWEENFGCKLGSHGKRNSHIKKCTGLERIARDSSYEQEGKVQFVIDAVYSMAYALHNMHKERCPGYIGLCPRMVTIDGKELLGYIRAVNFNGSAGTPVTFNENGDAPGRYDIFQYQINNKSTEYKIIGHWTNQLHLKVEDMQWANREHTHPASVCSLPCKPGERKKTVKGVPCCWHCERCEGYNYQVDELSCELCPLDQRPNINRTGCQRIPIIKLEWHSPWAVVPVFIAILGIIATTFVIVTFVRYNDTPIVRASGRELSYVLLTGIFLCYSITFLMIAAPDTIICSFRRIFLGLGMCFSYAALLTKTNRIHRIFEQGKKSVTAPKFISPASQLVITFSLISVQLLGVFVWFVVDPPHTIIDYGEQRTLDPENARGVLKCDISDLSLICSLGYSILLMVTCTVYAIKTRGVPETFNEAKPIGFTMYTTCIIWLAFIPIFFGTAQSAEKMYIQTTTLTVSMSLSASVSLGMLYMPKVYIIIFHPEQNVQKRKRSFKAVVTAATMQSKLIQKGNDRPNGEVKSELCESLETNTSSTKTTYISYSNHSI
row,Compound,z-score
1,CCOC(=O)c1ccc(NC(=O)NCc2ccn(CC)n2)cc1,-0.272
2,CC(NC(=O)OC(C)(C)C)C(=O)Oc1cc2oc(=O)cc(-c3ccccc3)c2cc1Cl (stereo not drawn),-0.18
3,CN(C(=O)COC(=O)c1cccnc1Nc1cccc(C(F)(F)F)c1)C1CCS(=O)(=O)C1 (stereo not drawn),-0.511
4,NC(=O)C1(N2CCCCC2)CCN(CC(=O)Nc2ccc(Oc3ccccc3)cc2)CC1,-0.0441
5,C/C(=N\NS(=O)(=O)c1ccc(C)cc1)c1ccc(Br)s1,-0.207
6,CCCN(Cc1cc2cc(C)ccc2[nH]c1=O)C(=O)c1cccc(OC)c1,1.58
7,O=C(NCC12CC3CC(C1)CC(CNC(=O)N1CCCC1)(C3)C2)N1CCCC1,-0.0819
8,CCCC(=O)N=C1SC2CS(=O)(=O)CC2N1c1ccc(C(C)=O)cc1 (stereo not drawn),1.05
9,CCCC(=O)Nc1ccc(C(=O)N/N=C/c2ccc([N+](=O)[O-])o2)cc1,-0.288
10,O=C(OCC#CCSc1nnc(-c2cccc3ccccc23)o1)c1ccco1,-0.103
11,COc1cc(/C=N/O)ccc1OCc1ccc([N+](=O)[O-])cc1,-0.287
12,O=C(NC(=S)NCc1ccccc1)c1ccc2c(c1)OCO2,1.71
13,C/C(=N\NC(=O)c1cc(Cl)ccc1O)c1ccc(Br)s1,active: 6.48
14,Cc1ccc(S(=O)(=O)N2CCC(C(=O)NNS(=O)(=O)c3ccc(Cl)cc3)CC2)cc1,-0.204
15,C=CCc1cccc2cc(C(=O)NC(C)(C)C)c(=O)oc12,-0.356
16,O=[N+]([O-])c1ccc(NC(=S)N2CCc3ccccc3C2)cc1,0.128
17,Cc1ccc(-c2nnc(Nc3ccccc3)c3ccccc23)cc1S(=O)(=O)NCC1CCCO1 (stereo not drawn),-0.462
18,CC(=O)Nc1ccc(-n2nnnc2SCC(=O)N2CCN(C(=O)c3ccco3)CC2)cc1,-0.165
19,Cc1cc(C)cc(NC(=O)CSc2nc3[nH]ncc3c(=O)[nH]2)c1,-0.54
20,COc1cc(/C=C/C(=O)OCC(=O)NC(=O)NC(C)C)ccc1OCC#N,-0.426
21,CCOc1ccc2nc(N3CCOCC3)nc(C)c2c1,-0.106
22,COc1ccc(NCC(=O)Nc2ccc(Cl)cc2C)c(OC)c1,-0.192
23,Cc1ccccc1NC(=O)Cn1c(=O)n(Cc2ccccc2)c(=O)c2c(C)c(C)sc21,0.105

row,Compound,z-score
1,O=C(CSc1nc2ccccc2o1)NCc1ccc2c(c1)OCO2,0.00646
2,Cc1ccc(C(=O)NCCSc2ccccc2)cc1S(=O)(=O)Nc1ccccc1,-0.224
3,C/C(=N\O)C1/C(=N/O)CC2C1C2(C)C (stereo not drawn),-0.147
4,Cc1ccc(S(=O)(=O)CC(c2ccccc2)N2CCOCC2)cc1 (stereo not drawn),-0.145
5,CCOc1ccc(NC(=O)/C(=C\c2ccc(OC(C)=O)c(OC)c2)NC(C)=O)cc1,-0.207
6,O=C(Nc1cccnc1)C1CCCN(S(=O)(=O)c2cccc3nsnc23)C1 (stereo not drawn),-0.00732
7,Nc1nc2ccc(S(=O)(=O)N3CCCCC3)cc2s1,-0.0709
8,CCOC(=O)C1CCN(C(=O)N(C)C)CC1,-2.73
9,CCc1nnc(NC(=O)CSc2nc3c(cc2C#N)CCC3)s1,0.013
10,O=C(/C(=C/c1ccc(Cl)cc1)c1nc2ccccc2[nH]1)c1cccs1,-0.626
11,COc1ccc(-n2ncc3c(NCCCn4ccnc4)ncnc32)cc1,-0.185
12,NC(=O)COC(=O)c1oc2ccccc2c1CSc1ccc(Cl)cc1,-0.126
13,CC(=O)NS(=O)(=O)c1ccc(NC(=O)C2c3ccccc3Oc3ccccc32)cc1,-0.11
14,CCCn1c(SCC(=O)NCc2ccccc2)nnc1-c1ccncc1,0.519
15,CS(=O)(=O)N(CCc1ccccc1)CC(=O)Nc1ccc2c(c1)OCO2,0.0607
16,CCCCCOC(=O)C1=C(C)N(C)C(=O)NC1c1cc(Br)c(O)c(OC)c1 (stereo not drawn),-0.227
17,N#Cc1nc(-c2cccs2)oc1N1CCN(Cc2ccccc2)CC1,-0.142
18,CC(=O)OC1CCC2(C)C(COc3ccc4ccc(=O)oc4c3)C(C)(O)CCC2C1(C)C (stereo not drawn),-0.078
19,COc1ccc(-c2nc(-c3ccccc3)c(-c3cccs3)[nH]2)cc1OC,0.912
20,COc1cccc(NC(=O)C2CCN(Cc3cnn(-c4ccccc4)c3-n3cccc3)CC2)c1,-0.463
21,Cc1cc(=O)[nH]c(N/N=C/c2ccc(Br)s2)n1,-0.397
22,NC(=O)C(c1ccccc1)C1CCCCC1 (stereo not drawn),-0.0785
23,CCN(CC)c1ccc(NC(=O)c2cccc(F)c2)c(C)c1,1.07

row,Compound,z-score
1,CC(=O)Nc1ccc(OCC(O)CN2CCN(c3cccc(Cl)c3)CC2)cc1 (stereo not drawn),-0.0205
2,COc1ccc2cc(C(c3nnnn3C3CCCC3)N3CCCCCC3)c3nnnn3c2c1 (stereo not drawn),0.0233
3,O=C(Nc1ccc(Cl)cc1)c1cccs1,-0.08
4,CCOc1ccc2nc(N/C(N)=N/C(=S)Nc3cccc(C)c3)nc(C)c2c1,-1.52
5,Cc1ccccc1Nc1nnc(SCC(=O)Nc2ccccc2[N+](=O)[O-])s1,-0.274
6,Cc1c(Br)c([N+](=O)[O-])nn1CC(=O)NCc1ccccn1,-0.0483
7,CC1=NN(C(N)=S)C(=O)C1N=Nc1ccc(C)cc1C (stereo not drawn),active: 13.2
8,Cc1ccc(-c2cc(C(=O)Nc3cc(C)ccc3C)[nH]n2)c(O)c1,0.576
9,CC(C)C(=O)NCCSc1c[nH]c2ccccc12,-0.143
10,Oc1ccccc1-c1nc(NCc2ccco2)c2ccccc2n1,0.658
11,O=C(NC(=S)Nc1ccccc1N1CCOCC1)c1ccc(-c2cccc(Cl)c2)o1,0.758
12,Nc1c(-c2cccs2)cnn1-c1nc(-c2ccc(Cl)cc2Cl)cs1,-0.0632
13,CCOC(=O)c1ccc(NC(=O)CSc2nnc(Cc3cccs3)n2C)cc1,0.666
14,CC1(C)CC(=O)c2sc(NS(=O)(=O)Cc3ccccc3)nc2C1,-0.147
15,CCOC(=O)C1CCN(S(=O)(=O)c2ccc(OC)c(Cl)c2Cl)CC1,0.11
16,Cc1ccc(NC(=O)N(C2=NCC(C)S2)c2ccccc2)cc1 (stereo not drawn),-0.0682
17,CCOc1ccccc1Nc1nc(-c2sc(NC(=O)c3ccccc3)nc2C)cs1,-0.0643
18,Cc1cccc(OCC(=O)NNC(=O)Nc2cccc(Cl)c2)c1C,-0.193
19,Cc1cccc(NC(=O)c2ccc(OCC(=O)NCc3ccccc3)cc2)c1C,-0.187
20,COc1ccccc1Cn1nnc2c(=O)[nH]c(C3CCN(C(=O)c4ccc(C)cc4)CC3)nc21,0.26
21,Cc1ccc2nc(Cl)c(C3CC(c4cccs4)=NN3C(=O)CCC(=O)O)cc2c1 (stereo not drawn),-0.475
22,CCOC(=O)Cn1c(=N)n(Cc2ccccc2F)c2ccccc21,active: 3.72
